Results from PubChem BioAssay AID1345083 (National Center for Advancing Translational Sciences (NCATS), 2018).
The campaign covered roughly 94,000 compounds. About 6,200 (6.6%) were called active. The shares of active, inactive and inconclusive entries below differ from those in the screen. Calls follow the shape of the dose curve; as a rule, active = well fitted inhibition curve with a large enough effect; inconclusive = small, poorly fitted or top-dose-only effect; inactive = flat fitted curve, though single readings scatter. A potency beside an inconclusive call is a rough fit, not a confirmed value.

Experiment: Cytotoxic Profiling in HEK 293 Cell Line of Diverse Libraries Using Quantitative High-Throughput Screening; also: nearly all actives have a fitted effect of over 60% in size
Settings: HEK 293 viability, ATP luminescence (CellTiter-Glo), 48-72 h; activity change, negative = cytotoxicity: at 115 µM (top of the series) unless noted; series mostly up to 115 µM
How it was run: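 Luminescence from cellular ATP, measured with CellTiter-Glo, indicates HEK 293 viability. Cells plated at 250 cells/well are treated with compound for 48 or 72 hr at 37 degree Celsius before reagent addition.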
% is scaled to controls: 0 for no effect and ±100 for the full control effect; potency is read from the fitted curve at half-maximal effect; tags tell the direction and shape of the fitted curve.

| Compound | Potency | activity change, negative = cytotoxicity | outcome |
| --- | --- | --- | --- |
| COc1ccccc1-c1cccc(CN2CCC(NC(=O)c3ccc(C(F)(F)F)cc3)CC2)c1 | active: 22.4 µM |  |  |
| COc1cccc(CC(=O)N2C[C@@H](F)C[C@H]2C(=O)N2CCOCC2)c1 |  | inactive: 5.98% |  |
| COc1ccc(-c2nc3cc(C)ccc3cc2CN2CCN(C)C(=O)C2)cc1OC | inconclusive: 63.1 µM [inhibitor, partial curve, poor fit] |  |  |
| Cc1ccc(C2=NC3(CCN(C(=O)c4ccccc4Cl)CC3)ON2)cc1 |  | inactive: -24.9% |  |
| O=C1c2cccn2CC(CNS(=O)(=O)c2ccc(F)cc2)N1Cc1ccccc1 (centres undefined) | inconclusive: 89.1 µM [inhibitor, single point] |  |  |
| CCn1cc(S(=O)(=O)N2CCC(Oc3ccc(-c4noc(COC)n4)cc3)C2)cn1 (centres undefined) | inconclusive: 89.1 µM [inhibitor, single point] |  |  |
| Cc1ccccc1S(=O)(=O)N1CCC(CCC(=O)Nc2cccnc2)CC1 | inconclusive: 50.1 µM [inhibitor, partial curve, poor fit] |  |  |
| O=C1CCN(CC2CCCCC2)CCCC(c2nc(-c3cccnc3)no2)CCN1 (centres undefined) | inconclusive: 50.1 µM [inhibitor, partial curve, poor fit] |  |  |
| Cc1cc(=O)n(CC(=O)Nc2ccc(Br)cc2F)c(N2CCc3ccccc3C2)n1 | inconclusive: 50.1 µM [inhibitor, partial curve, poor fit] |  |  |
| Cn1ncc2c(C(=O)NCCc3ccccc3F)cc(-c3ccc(F)cc3)nc21 | active: 31.6 µM |  |  |
| Cc1ccc(S(=O)(=O)NC[C@H]2O[C@H](Cc3cc(COc4ccccc4)on3)CC[C@@H]2O)cc1 | inconclusive: 50.1 µM [inhibitor, partial curve, poor fit] |  |  |
| O=C1COC[C@H]([C@H](O)c2ccc(NC(=O)C3CCCC3)cc2)N1 |  | inactive: 2.6% [at 172 µM] |  |
| O=[S+]([O-])(NCC1CN(Cc2ccncc2Cl)CC12CN(c1ccccc1)C2)c1ccccc1 (centres undefined) | inconclusive: 31.6 µM [inhibitor, partial curve, poor fit] |  |  |
| Cc1noc(-c2ccn3c(CNC(=O)c4cc5ccccc5[nH]4)nnc3c2)n1 |  |  | inactive |
| COCC(=O)N1CCC(Oc2ccccc2-c2nc(C3CCOCC3)no2)C1 (centres undefined) | inconclusive: 89.1 µM [inhibitor, single point] |  |  |
| CCc1noc(-c2cn(C3CCN(C(=O)c4ccc(OC(F)(F)F)cc4)CC3)nn2)n1 | inconclusive: 39.8 µM [inhibitor, full curve, poor fit] |  |  |
| COc1ccccc1C(=O)N1CC(Oc2ccc(-c3noc(-c4ccncc4)n3)cc2)C1 | inconclusive: 22.4 µM [inhibitor, full curve, poor fit] |  |  |
| COCCNC(=O)c1ccc(OC2CCN(CCc3ccccc3)CC2)c(Cl)c1 | inconclusive: 22.4 µM [inhibitor, full curve, poor fit] |  |  |
| CCn1cc(CN(C)C(=O)CCC[C@@H]2[C@H]3CCCN4CCC[C@@H](CN2C)[C@@H]34)c(C)n1 |  | inactive: -14.5% |  |
| O=C(c1ccccc1F)N1CCCC2(CC(c3cccc(C(F)(F)F)c3)=NO2)C1 (centres undefined) | inconclusive: 56.2 µM [inhibitor, partial curve, poor fit] |  |  |
| COc1ccc(-n2ncc(C(C)NC(=O)Cc3ccc4c(c3)OCO4)c2C)cc1 (centres undefined) | inconclusive: 50.1 µM [inhibitor, partial curve, poor fit] |  |  |
| Cn1nc(C2CCCC2)cc1NC(=O)c1ccccc1Cl | inconclusive: 70.8 µM [inhibitor, partial curve, poor fit] |  |  |

| Compound | Potency | activity change, negative = cytotoxicity | outcome |
| --- | --- | --- | --- |
| CCOc1ccc(C(=O)N2CCCC3(C2)NC(=O)N(Cc2cc(C)ccc2C)C3=O)cc1 (centres undefined) | inconclusive: 79.4 µM [inhibitor, single point] |  |  |
| CC(C)NC(=O)N1CCC2(CC1)CC(N(C)Cc1ccccc1)CCO2 (centres undefined) |  | inactive: 4.97% |  |
| CC(C)(C)CN1Cc2cc3c(cc2N(CC(O)COc2ccccc2)CCC1=O)OCO3 (centres undefined) | inconclusive: 50.1 µM [inhibitor, partial curve, poor fit] |  |  |
| CC1(c2noc(C3CC3)n2)CCN(C(=O)CCc2nc3ccc(Cl)cc3[nH]2)CC1 | inconclusive: 70.8 µM [inhibitor, partial curve, poor fit] |  |  |
| COC(=O)c1ccc2c(c1)nc1n2[C@@H](CNC2CCC2)COC1 |  | inactive: -5.69% [at 172 µM] |  |
| C=Cc1cccc(CN2CCCC3(CCNC3)C2)c1 (centres undefined) | inconclusive: 89.1 µM [inhibitor, single point] |  |  |
| COc1ccc(-c2cc(N3CCCC(NC(=O)c4cc(C)cc(C)c4)C3)n[nH]2)cc1 (centres undefined) | active: 44.7 µM |  |  |
| Cc1cccc(OCC(=O)N2CCC[C@H]2c2nc(-c3ccccc3)no2)c1 |  | inactive: -18.9% |  |
| Cn1cccc1CN1CCCN(S(C)(=O)=O)C(c2ccccc2)CC(=O)NCC1 (centres undefined) | inconclusive: 50.1 µM [inhibitor, partial curve, poor fit] |  |  |
| COCCn1ncc(N2CCCC(CC(=O)N3CC=C(c4ccccc4)CC3)C2)cc1=O (centres undefined) |  | inactive: -23.5% |  |
| O=C(NCc1ccc(F)cc1)c1cn2cc(-c3ccc(F)cc3)sc2n1 | inconclusive: 56.2 µM [inhibitor, partial curve, poor fit] |  |  |
| O=C(Cn1ccccc1=O)N1CCC(N2CCSCC2)CC1 | inconclusive: 35.5 µM [inhibitor, partial curve] |  |  |
| CCCCCC(=O)N1CCC(=O)N(CCOC)C[C@H]2COc3ccccc3[C@H]21 |  | inactive: -9.52% |  |
| Cc1noc(CC2CCOC3(CCN(C(=O)c4cc(-c5ccc(F)cc5)n[nH]4)CC3)C2)n1 (centres undefined) | inconclusive: 89.1 µM [inhibitor, single point] |  |  |
| CCCS(=O)(=O)N[C@H]1C[C@@H](c2nc(-c3ccc4c(c3)OCO4)no2)N(C)C1 | inconclusive: 126 µM [inhibitor, single point] |  |  |
| COc1ccc(-c2cc(C(=O)NC3CC3)c3cnn(C)c3n2)cc1 | inconclusive: 63.1 µM [inhibitor, full curve] |  |  |
| CCc1nc2c(c(-c3ccc(Cl)cc3)n1)CCN(Cc1ccc(N(C)C)cc1)CC2 | inconclusive: 50.1 µM [inhibitor, partial curve, poor fit] |  |  |
| CCN1CCN(C(=O)c2cc(-c3cc(Cl)cc(Cl)c3)c3nncn3n2)CC1 |  | inactive: -6.92% |  |
| Cn1ccnc1CN1C(=O)CO[C@H](c2ccc(NC(=O)CCc3ccccc3)cc2)[C@H]1CO |  | inactive: -30.7% |  |
| CS(=O)(=O)NC1CCN(c2ccc3nnc(C4CC4)n3n2)CC1 |  |  | inactive |
| O=C(NCCc1ccc(Cl)cc1)C1CCN(Cc2ccccc2-c2cccnc2)CC1 | inconclusive: 44.7 µM [inhibitor, partial curve, poor fit] |  |  |
| COc1cc(OC)cc(C(=O)N2CCC(n3cc(-c4nc(C(C)C)no4)nn3)CC2)c1 | inconclusive: 56.2 µM [inhibitor, partial curve, poor fit] |  |  |

| Compound | Potency | activity change, negative = cytotoxicity | outcome |
| --- | --- | --- | --- |
| O=C(Nc1cc(-c2ccncc2)nn1-c1ccccc1)c1cccc(Br)c1 | inconclusive: 44.7 µM [inhibitor, partial curve, poor fit] |  |  |
| COc1ccc(OC)c(NC(=O)Nc2cccc(-c3ccc(N4CCCCC4)nn3)c2)c1 | inconclusive: 50.1 µM [inhibitor, partial curve, poor fit] |  |  |
| Cc1ccc(CN2CCCC(CNC(=O)NC(C)C)C2)cc1C (centres undefined) | inconclusive: 89.1 µM [inhibitor, single point] |  |  |
| CCOc1ccc(-c2cccc3c2CCNC3)cc1C(N)=O | inconclusive: 25.1 µM [inhibitor, full curve] |  |  |
| Cc1cnc(-c2ccncc2)n1CCC1CCN(C(=O)CCc2ccccc2)CC1 | inconclusive: 89.1 µM [inhibitor, single point] |  |  |
| CC1(COc2ccccc2)COc2ccc(C(=O)NCc3ccc4c(c3)OCO4)cc2N1 (centres undefined) | inconclusive: 39.8 µM [inhibitor, full curve, poor fit] |  |  |
| O=C(Nc1ccc2c(c1)OCCO2)N1CCCC(Cn2cnc3cccnc32)C1 (centres undefined) |  | inactive: 6.27% |  |
| CN(C)c1cc(N2CCCC(NC(=O)CCc3ccccc3)C2)ncn1 (centres undefined) |  | inactive: 2% |  |
| COc1ccc(CN2C[C@H]3CN(Cc4ccc(C)cc4)CCN3C2=O)cc1 | inconclusive: 44.7 µM [inhibitor, partial curve, poor fit] |  |  |
| COC1CCOC2(CCN(C(=O)c3cnccn3)CC2)C1 (centres undefined) |  | inactive: -8.41% |  |
| Cc1cccc(CN2CCC3(Cc4ccccc4CNC3=O)C2)c1 (centres undefined) | inconclusive: 89.1 µM [inhibitor, partial curve] |  |  |
| O=C1COc2ccc(Nc3ccccc3F)nc2CN1Cc1ccccc1F | inconclusive: 35.5 µM [inhibitor, partial curve, poor fit] |  |  |
| O=C(Nc1ccc2c(c1)OCCO2)C1CC(=O)N(c2n[nH]c3ccccc23)C1 (centres undefined) |  | inactive: -17.6% |  |
| CC1CCN(C(=O)C[C@@H]2c3nc(NC(=O)CC(C)(C)C)sc3C[C@@H]3[C@](C)(CO)[C@H](O)CC[C@]32C)CC1 | inconclusive: 50.1 µM [inhibitor, partial curve, poor fit] |  |  |
| O=C(NCc1nnc2c(-c3nc(C4CC4)no3)cccn12)c1ccccc1Cl |  | inactive: -19.9% |  |
| Cc1ccc([S+](=O)([O-])NC2CCN(Cc3cccc(-c4ccc(F)c(F)c4)c3)CC2)cc1 | active: 22.4 µM |  |  |
| Cc1cc2c(cc1CNC1CC(C)(C)Cc3nc(C(C)(C)C)ncc31)OCO2 (centres undefined) | inconclusive: 15.8 µM [inhibitor, full curve, poor fit] |  |  |
| CCCN(CCC)C(=O)C1COC2(CCCCC2)N1C(=O)c1ccccc1 (centres undefined) |  | inactive: -2.7% |  |
| CC[S+](=O)([O-])N1C[C@@H](CO)[C@@H]2Oc3c(F)cccc3[C@@H]21 |  | inactive: -31.7% |  |
| CCOC(=O)C[C@@H]1C[C@@H](C(C)C)[C@H](CNC(=O)C(C)(C)C)C=C1C | inconclusive: 112 µM [inhibitor, partial curve] |  |  |
